The data set is described as follows: xn = mol fraction of the nth substance listed. The note with it: 293.15 K, 100 kPa.

Some of these densities may be calculated back from excess volumes.

We go through 4 compounds from a compilation of properties of binary mixtures (doi:10.1016/j.molliq.2022.118955).

The mass density is the mass of a sample divided by its volume. Consider `CCO` + CCCC[n+]1ccn(C)c1.[I-], for which the mass density (x2 = 0) is recorded as 789 kg/m3.
As to `CCCC[n+]1ccn(C)c1.[I-]` + CCO, the mass density is, setting by setting: (x1 = 0.009) 811 kg/m3; (x1 = 0.0198) 832 kg/m3; (x1 = 0.0676) 925 kg/m3; (x1 = 0.1006) 976 kg/m3; (x1 = 0.148) 1042 kg/m3; (x1 = 0.2076) 1110 kg/m3. For the same compound, the mass density (x1 = 0.2876) was determined as 1185 kg/m3, the mass density (x1 = 0.4094) was 1274 kg/m3 and the mass density (x1 = 1) was found to be 1481 kg/m3.
With `CC[n+]1ccn(C)c1.[I-]` + CCO, the mass density is on record as 831 kg/m3 (x1 = 0.0208); 929 kg/m3 (x1 = 0.0766); 997 kg/m3 (x1 = 0.1141); 1071 kg/m3 (x1 = 0.1621); 1248 kg/m3 (x1 = 0.3112); 1355 kg/m3 (x1 = 0.4385).
As to `CCO` + CC[n+]1ccn(C)c1.[I-], for the setting “x2 = 0”, the mass density amounted to 789 kg/m3.
